{"source": "PubChem BioAssay AID686979", "about": "(National Center for Advancing Translational Sciences (NCATS), 2013)", "note": "The campaign covered roughly 420,000 compounds. About 50,000 (12%) were called active. This list was built around the results that the source calls inconclusive (neither active nor inactive); the mix of calls is not that of the screen. Calls follow the shape of the dose curve; as a rule, active = well fitted inhibition curve with a large enough effect; inconclusive = small, poorly fitted or top-dose-only effect; inactive = flat fitted curve, though single readings scatter. No potency is given beside an inconclusive call; the fits are too rough. % is scaled to controls: 0 for no effect and ±100 for the full control effect; potency is read from the fitted curve at half-maximal effect; tags tell the direction and shape of the fitted curve."}
{"assay": "qHTS for Inhibitors of human tyrosyl-DNA phosphodiesterase 1 (TDP1): qHTS in cells in presence of CPT; also: nearly all actives have a fitted effect of over 55% in size", "conditions": "chicken DT40 Tdp1-/-;hTDP1 cells + 20 nM CPT, ATP luminescence, 48 h; activity change, negative = growth inhibition: at 46.2 µM (top of the series)", "procedure,_shortened": "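Chicken DT40 Tdp1-/- cells stably complemented with human TDP1 were seeded at 400 cells/well in medium containing 20 nM camptothecin, exposed to pin-transferred compounds, and grown at 37 °C for at least 48 hr. Viability was read as ATP luminescence.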"}
{"smiles": "COC(=O)c1cnc(SCc2ccc([N+](=O)[O-])cc2)n1C", "Potency": "inactive"}
{"smiles": "CN(C(=O)c1cccc(NC(=O)Cc2ccc(NC(=O)C3CCCN(S(=O)(=O)c4cccc([N+](=O)[O-])c4)C3)cc2)c1)C1CCCC1", "note": "(stereo unspecified)", "Potency": "inactive"}
{"smiles": "O=C(Nc1ccccc1Cl)Nc1ccccc1Cl", "Potency": "inactive"}
{"smiles": "O=C(Nc1ccc(F)cc1F)c1ccc2c(c1)CCN2S(=O)(=O)c1ccc(Cl)cc1", "Potency": "inconclusive [inhibitor, single point]"}
{"smiles": "COc1ccc(-n2cc(C(=O)Nc3cc(F)ccc3F)c3ccccc3c2=O)cc1", "Potency": "inconclusive [inhibitor, single point]"}
{"smiles": "O=c1[nH]cnc2c1c(-c1ccccc1)cn2-c1ccc(Br)cc1", "Potency": "inconclusive [inhibitor, partial curve]"}
{"smiles": "Cc1ccccc1NC(=O)CN1CCN(c2ccc(F)cc2)CC1", "Potency": "inconclusive [inhibitor, partial curve]"}
{"smiles": "Cc1ccc(NC(=O)Cn2c(=O)ccc3cc(S(=O)(=O)N4CCC(C)CC4)ccc32)c(C)c1", "Potency": "inconclusive [inhibitor, single point]"}
{"smiles": "CC(C)C(NC(=O)c1ccc(C(C)(C)C)cc1)C(=O)N1CCCC1", "note": "(stereo unspecified)", "activity change, negative = growth inhibition": "inconclusive: -32.7% [inhibitor]"}
{"smiles": "COC(=O)c1sccc1NC(=S)N1CCN(c2cc(C)ccc2C)CC1", "Potency": "inconclusive [inhibitor, single point]"}
{"smiles": "O=S1(=O)[C@H]2C[C@@H]3C=C[C@@]2(CN1Cc1ccc(F)cc1)O3", "Potency": "inconclusive [inhibitor, single point]"}
{"smiles": "COc1ccc(C(=O)NC(=S)Nc2ccc(N3CCOCC3)cc2)cc1Cl", "Potency": "inconclusive [inhibitor, single point]"}
{"smiles": "O=C(COC(=O)Cc1cccc(F)c1)NC(=O)NC1CCCCC1", "Potency": "inactive"}
{"smiles": "O=C(NCC1CCOCC1)C1Cc2c(-c3ccccc3Oc3ccccc3)ccnc2O1", "note": "(stereo unspecified)", "Potency": "inconclusive [inhibitor, single point]"}
{"smiles": "CCCCNC(=O)Cn1c2c(c(-c3ccccc3Cl)cc1=O)CCC2", "Potency": "inconclusive [inhibitor, single point]"}
{"smiles": "CCNC(=O)/C(C#N)=C/c1c(N2CCCCCC2)nc2c(C)cccn2c1=O", "Potency": "inconclusive [inhibitor, single point]"}
{"smiles": "COc1ccc(NC(=O)CSCc2ccc(C#N)cc2)c(OC)c1", "activity change, negative = growth inhibition": "inconclusive: -33% [inhibitor]"}
{"smiles": "CN1C(=O)CC(C(=O)Nc2ccc(F)cc2)SC1=Nc1ccc2c(c1)OCO2", "note": "(stereo unspecified)", "activity change, negative = growth inhibition": "inconclusive: -30.6% [inhibitor]"}
{"smiles": "Cc1cc(C(=O)COC(=O)c2ccccc2O)c(C)n1Cc1cccs1", "Potency": "inconclusive [inhibitor, single point]"}
{"smiles": "CCNC(=S)NN=C1c2ccccc2-c2ccccc21", "Potency": "active: 3.66 µM"}
{"smiles": "COCCCN1C(=O)/C(=C\\c2ccc3c(c2)OCO3)C(C(=O)OC)=C1C", "Potency": "inconclusive [inhibitor, single point]"}
{"smiles": "CCCCOC(=O)c1ccc(NC(=O)CC2NCCNC2=O)cc1", "note": "(stereo unspecified)", "Potency": "inactive"}
{"smiles": "CCOc1ccc(CNC(=O)Cn2ccc3cc(S(=O)(=O)N4CCCCCC4)ccc32)cc1", "Potency": "active: 16.4 µM"}
{"smiles": "COc1ccc(-c2nc(CS(=O)(=O)CC(=O)NCCc3cc(OC)ccc3OC)c(C)o2)cc1", "activity change, negative = growth inhibition": "inconclusive: -30.5% [inhibitor]"}
{"smiles": "CCc1ccc(NC(=O)c2ccc(NC(=O)C3CCCO3)cc2)cc1", "note": "(stereo unspecified)", "Potency": "inactive"}
{"smiles": "O=S(=O)(Cc1cccc(F)c1)c1c[nH]c2ccccc12", "Potency": "inconclusive [inhibitor, partial curve, poor fit]"}
{"smiles": "NS(=O)(=O)c1ccc(NC(=O)COC(=O)Cn2cnc3ccccc3c2=O)cc1", "Potency": "inactive"}
{"smiles": "COc1ccc2oc(=O)c(C(=O)Nc3cccc(C(=O)O)c3)cc2c1", "Potency": "inactive"}
{"smiles": "O=C(COC(=O)c1ccc(S(=O)(=O)NCc2ccco2)cc1)Nc1ccccc1OC(F)F", "Potency": "inactive"}
{"smiles": "CC(=O)c1cc(NC(=O)c2ccccc2)c(=O)oc1C", "activity change, negative = growth inhibition": "inconclusive: -38.2% [inhibitor]"}
{"smiles": "COc1cccc(CNC(=O)C2CCN(Cc3cc4ccccc4n3Cc3ccc(C)cc3)CC2)c1", "Potency": "inconclusive [inhibitor, single point]"}
{"smiles": "O=C(Nc1ccc(Cl)c(Cl)c1)Nc1cc(C(=O)N2CCOCC2)ccc1N1CCCCC1", "Potency": "inconclusive [inhibitor, single point]"}
{"smiles": "Cc1nc2cnc(Oc3ccccc3)nc2n(C2CC2)c1=O", "Potency": "inactive"}
{"smiles": "O=C(CCCl)N1CCN(c2nc(-c3ccccc3)cs2)CC1", "Potency": "inconclusive [inhibitor, single point]"}
{"smiles": "COc1ccc(CN=C2Nc3ccccc3CS2)cc1", "Potency": "inconclusive [inhibitor, partial curve, poor fit]"}
{"smiles": "CC(=O)c1c(C)[nH]c(C(=O)CSc2nnc(-c3ccco3)o2)c1C", "Potency": "inconclusive [inhibitor, single point]"}
{"smiles": "O=C(CNC(=O)c1ccc(Br)o1)NNC(=O)c1ccc(Br)cc1", "Potency": "inactive"}
{"smiles": "CC1(C)C[C@H](O)[C@]2(CO)CC[C@]3(C)C(=CCC4[C@@]5(C)CC[C@H](O)C(C)(C)C5CC[C@]43C)[C@@H]2C1", "note": "(stereo partly specified)", "Potency": "inconclusive [inhibitor, single point]"}
{"smiles": "CCOc1ccc(-c2cc(C(=O)NCCCN3CCN(CC)CC3)c3ccccc3n2)cc1", "Potency": "inconclusive [inhibitor, single point]"}
{"smiles": "Cc1cccc(-c2cnc(C(O)c3ccc(F)c(C)c3)[nH]2)c1", "note": "(stereo unspecified)", "Potency": "inactive"}
{"smiles": "COc1ccc(-c2c(-c3ccc(O)cc3O)n[nH]c2C)cc1OC", "Potency": "inconclusive [inhibitor, single point]"}
{"smiles": "C/C(=N\\NC(=S)NCc1ccccc1)c1ccco1", "Potency": "inconclusive [inhibitor, single point]"}
{"smiles": "COc1cnc(SCc2ccc(Cl)c(Cl)c2)nc1Cl", "Potency": "inconclusive [inhibitor, single point]"}
{"smiles": "CC(C)(c1cc(Br)c(O)c(Br)c1)c1cc(Br)c(O)c(Br)c1", "Potency": "inactive"}
{"smiles": "O=C(c1c[nH]c2ccccc2c1=O)N1CCCCCC1", "Potency": "inactive"}
{"smiles": "Cc1ccc(Cn2c(CCCNC(=O)c3ccco3)nc3ccccc32)cc1", "Potency": "inconclusive [inhibitor, single point]"}
{"smiles": "CC1=CC(c2ccccc2)n2nc(NC(=O)CCC(=O)O)nc2N1", "note": "(stereo unspecified)", "Potency": "inconclusive [inhibitor, single point]"}
{"smiles": "Cc1cc(C(=O)NN=Cc2c(C)[nH]c3ccccc23)c(C)o1", "Potency": "inconclusive [inhibitor, single point]"}
{"smiles": "O=c1cc(/C=C/c2ccccc2)oc2ccccc12", "Potency": "active: 16.4 µM"}
{"smiles": "Cc1nc2c(-c3ccccc3)c(C)nn2c(C)c1CCC(=O)NCc1ccc(Cl)cc1", "Potency": "inconclusive [inhibitor, single point]"}
{"smiles": "COc1ccc(CCNS(=O)(=O)c2ccc(N3CCCCS3(=O)=O)cc2)cc1OC", "Potency": "inconclusive [inhibitor, single point]"}
{"smiles": "CCOC(=O)c1c(N)n(C2CC(C)(C)NC(C)(C)C2)c2nc3ccccc3nc12", "Potency": "inconclusive [inhibitor, single point]"}
{"smiles": "Cc1cc(NC(=O)/C=C/C(=O)N(c2ccccc2C)C(C(=O)NC2CCCC2)c2ccc(F)cc2)no1", "note": "(stereo unspecified)", "Potency": "active: 20.6 µM"}
{"smiles": "O=C(NCc1ccccc1)C(=O)NCC1OCCN1C(=O)c1cccs1", "note": "(stereo unspecified)", "Potency": "inactive"}
{"smiles": "CCOC(=O)c1ccc(NC(=O)c2nc(SC(C)C)ncc2Cl)cc1", "Potency": "active: 16.4 µM"}
{"smiles": "COc1cc(/C=C2\\C(=N)N3N=CSC3=NC2=O)ccc1OS(=O)(=O)c1ccccc1", "Potency": "inconclusive [inhibitor, single point]"}
{"smiles": "COc1cc(/C=C/C(=O)Nc2cccc(S(=O)(=O)NC3=NCCCCC3)c2)ccc1OCC#N", "Potency": "inconclusive [inhibitor, single point]"}
{"smiles": "CN(Cc1ccccc1)C(=O)c1cccc(NC(=O)Cc2ccc(NC(=O)C3CCCN(C(=O)CCc4ccccc4)C3)cc2)c1", "note": "(stereo unspecified)", "Potency": "active: 23.1 µM"}
{"smiles": "COc1cccc(CC2(CO)CCCN(Cc3cn[nH]c3C3CCCCC3)C2)c1", "note": "(stereo unspecified)", "Potency": "inactive"}
{"smiles": "O=C(CN1C(=O)NC2(CCCCC2)C1=O)Nc1ccc(Cl)c(S(=O)(=O)N2CCOCC2)c1", "Potency": "inactive"}
{"smiles": "COc1ccc(N2CCN(C(=O)C3(S(=O)(=O)c4ccc(C)cc4)CC3)CC2)cc1", "Potency": "inconclusive [inhibitor, partial curve, poor fit]"}
{"smiles": "CCOC(=O)c1nnn(CC(=O)Nc2cc(C)cc(C)c2)c1C(=O)OCC", "Potency": "inactive"}
{"smiles": "C1=C(c2ccccc2)Nc2ccccc2N=C1c1ccccc1", "Potency": "inconclusive [inhibitor, single point]"}
{"smiles": "Cc1ccc(NC(=O)COn2nnc3ccc(S(=O)(=O)N(C)C)cc32)cc1F", "Potency": "inconclusive [inhibitor, single point]"}
{"smiles": "O=CN(Cc1ccccc1)c1cc([N+](=O)[O-])ccc1OCc1ccccc1", "Potency": "inactive"}
{"smiles": "COc1ccccc1CNC(=O)c1cc2cccc3c2n1CC(C)S3", "note": "(stereo unspecified)", "Potency": "active: 20.6 µM"}
{"smiles": "COc1ccc(NC(=O)CC2C(=O)N(c3ccccc3)C(=O)N2C2CCCCC2)cc1", "note": "(stereo unspecified)", "Potency": "inactive"}
{"smiles": "CCOc1ccc(NC(=O)CSc2nnc3c(n2)[nH]c2ccc(S(=O)(=O)N4CCOCC4)cc23)cc1", "Potency": "inconclusive [inhibitor, single point]"}
{"smiles": "O=C(OCC(=O)N1CCc2ccccc2C1)c1c(F)cccc1Cl", "Potency": "inactive"}
{"smiles": "CS(=O)(=O)N(CC(=O)NCCSCc1ccccc1)c1cc(C(F)(F)F)ccc1Cl", "Potency": "active: 20.6 µM"}
{"smiles": "O=C(Cn1cnc2onc(-c3ccc(F)cc3)c2c1=O)Nc1cccc(C(F)(F)F)c1", "Potency": "active: 23.1 µM"}
